According to PubChem BioAssay AID1508642 (National Center for Advancing Translational Sciences (NCATS), 2021):
Hit rate of the full screen: of about 43,000 compounds, about 200 (0.47%) were called active. Another 12% or so got no clear call; they are omitted. The call rests on the fitted dose curve; in most records, active means well fitted cell-killing curve with a large enough effect; inconclusive means small, poorly fitted or top-dose-only effect, or effect the other way; inactive means flat fitted curve, though single readings scatter. This is one part of the list.

Assay: Cell viability qHTS assay in S16 Pmp22-F2sN cells; further: nearly all actives have a fitted effect of over 65% in size
Settings: S16 Pmp22-F2sN Schwann cells (luciferase reporters placed in the Pmp22 gene) viability, CellTiter-Glo, 24 h; series mostly up to 57.5 µM; activity change, negative = cytotoxicity: at the top concentration
Outline: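 S16 Schwann cells carrying the Pmp22-F2sN reporter, seeded in 1536-well format, were exposed to library compounds for 24 h at 37C. Viability was read as CellTiter-Glo luminescence after 15 min at room temperature.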
On the % scale 0 is the no-effect control and ±100 the full control effect.

Structure (SMILES)	activity change, negative = cytotoxicity
CCC(C)NC(=O)Cn1c(=O)n(-c2cc(OC)cc(OC)c2)c(=O)c2ccccc21 (centres undefined)	inactive: 19.9%
CC(=O)Nc1ccc(S(=O)(=O)N2CCC(n3c(C)nc4cccnc43)CC2)cc1	inactive: -16.9%
CCOC(=O)c1c(C)oc2nc(C)nc(NCCc3ccc(OCC)cc3)c12	inactive: -26.6%
COc1ccc(C(=O)NCC(=O)OCc2cc(=O)n3nc(C4CCCCC4)sc3n2)cc1	inactive: -13.7%
Cc1ccccc1-c1nc(CS(=O)(=O)CC(=O)NCCCN2CCN(C)CC2)c(C)o1	inactive: -6.55%
COc1ccc(-n2nnc(-c3nc(-c4ccc5c(c4)OCO5)no3)c2C)cc1Cl	inactive: 5.41%
COc1ccc(NC(=O)CSc2nncn3c2cc2occc23)c(OC)c1	inactive: 1.37%
CCc1ccccc1NC(=O)Cn1c(=O)n(-c2ccccc2)c(=O)c2oc3ccccc3c21	inactive: 10.6%
O=C(Cn1c(=O)n(Cc2ccco2)c(=O)c2ccccc21)Nc1cccc(F)c1	inactive: 18.3%
COc1ccc(NC(=O)Cn2c(=O)n(Cc3ccco3)c(=O)c3sc4ccccc4c32)cc1OC	inactive: 3.17%
CCOc1cc(C#N)c(NC(=O)c2ccc(OC)c(S(=O)(=O)N3CCCCC3)c2)cc1OCC	inactive: 4.65%
CC(=O)c1ccc(NC(=O)c2cnc(N3CCCC3)nc2C)cc1	inactive: -5.88%
Cc1ccc(-n2c(-c3ccc(Br)cc3)nc3c(cnn3-c3ccccc3)c2=O)cc1	inactive: -15.8%
Cc1ccc(N2CCN(C(=O)c3cn(C)c4ccc(S(=O)(=O)N5CCC(C)CC5)cc4c3=O)CC2C)cc1 (centres undefined)	inactive: 14%
O=C(Nc1nnc(S(=O)(=O)N2CCCc3ccccc32)s1)c1ccc(Cl)cc1	inactive: 6.37%
CCN(C(=O)CSc1nc(-c2ccc(C(C)C)cc2)no1)c1ccccc1	inactive: -4.98%
COc1ccc2c(c1)CC(C(=O)Nc1ccc(Br)c(C)c1)CO2 (centres undefined)	inactive: -8.18%
Cc1c2cnn(-c3ccccc3)c(=O)c2c(C)n1CC(=O)Nc1ccccc1Br	inactive: 1.13%
COc1ccccc1N1CCN(S(=O)(=O)c2ccc(-c3coc(C)n3)cc2)CC1	inactive: 13.2%
COc1cccc(C2CC(=O)Nc3c2c(=O)n(C)c2nc4ccccc4n32)c1 (centres undefined)	inactive: -1.42%

Structure (SMILES)	activity change, negative = cytotoxicity
CCOC(=O)c1c(C)[nH]c(C)c1S(=O)(=O)N(C)CC(=O)Nc1cccc(C(F)(F)F)c1	inactive: 27.8%
CCOC(=O)C1CCN(C(=O)Cn2ncc3c([nH]c4ccccc43)c2=O)CC1	inactive: 1.33%
O=C(Cn1c(=O)n(Cc2nc(-c3ccccc3)no2)c(=O)c2cc3c(cc21)OCO3)Nc1cccc(C(F)(F)F)c1	inactive: 3.7%
COc1ccc(-c2ccc(CCC(=O)O)n2-c2cc(Cl)ccc2O)cc1	inactive: 5.9%
Cc1cc(C)cc(NC(=O)Cn2c(=O)n(Cc3ccc4c(c3)OCO4)c(=O)c3oc4ccccc4c32)c1	inactive: -0.693%
Cc1cccc(CNC(=O)Cn2ccc3cc(S(=O)(=O)N4CCC(C)CC4)ccc32)c1	inactive: -2.91%
CCOc1ccc(NC(=O)C(C)Sc2nc3ncccc3o2)cc1 (centres undefined)	inactive: -3.53%
CC1CCN(S(=O)(=O)c2ccc3c(c2)N(CC(=O)NCCCN2CCCC(C)C2)C(=O)CS3)CC1 (centres undefined)	inactive: -15.6%
Cc1cccc(CNC(=O)c2ccc(NC(=O)N3CCSc4ncccc43)cc2)c1	inactive: 6.33%
Cc1cccc(NC(=O)c2oc3ccc(S(=O)(=O)N4CCC5(CC4)OCCO5)cc3c2C)c1C	inactive: -23.1%
CC(=O)c1ccc(N2CCN(c3ncnc4c3cnn4C)CC2)cc1	inactive: -9.48%
Cc1ccc2c(c1)-c1ncc(C(=O)c3cc(Br)ccc3O)cc1CO2	inactive: 21.3%
Cn1nc(-c2ccc(N3CCCCC3)c(NC(=O)c3ccc(Cl)cc3)c2)c2ccccc2c1=O	inactive: 2.38%
COc1ccc(C)cc1NC(=O)CN1C(=O)COc2ccc(S(=O)(=O)NC3CCCC3)cc21	inactive: 13.8%
CCOc1ccccc1NC(=O)c1nn(C)c2c1CSc1ccccc1-2	inactive: 0.344%
CCOc1ccc(-c2csc(-c3c(N)c(C(=O)c4ccc5c(c4)OCO5)n4ccccc34)n2)cc1	inactive: 9.93%
CCCn1c(=NC(=O)c2c(-c3c(F)cccc3Cl)noc2C)c(C(=O)OCC)cc2c(=O)n3ccccc3nc21	inactive: 0.122%
CC(=O)c1cccc(Nc2ccc3cc(S(=O)(=O)N4CCCC4)ccc3n2)c1	inactive: 19.4%
Cc1ccc(-n2ncc(C(=O)NCCN3CCc4ccccc4C3)c2C2CCNCC2)cc1C	inactive: -21.6%
COc1ccc(NC(=O)c2cc(=O)c3ccc(C)c(C)c3o2)cc1Cl	inactive: 0.329%

Structure (SMILES)	activity change, negative = cytotoxicity
CCOC(=O)c1cc(S(=O)(=O)Nc2ccccc2OCC)[nH]n1	inactive: -3.11%
Cc1ccccc1CSc1nc2c([nH]c3ccccc32)c(=O)n1C	inactive: 8.27%
COc1ccc(-n2c(=O)c3c4c(sc3n3c(SC(C)C)nnc23)COC(C(C)C)C4)cc1 (centres undefined)	inactive: 15.2%
CCCc1cc(=O)[nH]c(SCc2nc(-c3ccccc3F)no2)n1	inactive: -0.079%
COc1ccc(NC(=O)CSC2=Nc3ccccc3C3=NC(CC(=O)NCc4ccc5c(c4)OCO5)C(=O)N23)cc1 (centres undefined)	inactive: 3.32%
CCOc1ccc(C(c2c(O)cc(C)n(Cc3ccco3)c2=O)N2CCN(c3ccccc3)CC2)cc1 (centres undefined)	inactive: -0.447%
Cc1cccc(CNC(=O)C2CCN(S(=O)(=O)c3ccc4c(c3)CCCN4C(=O)C3CCC3)CC2)c1	inactive: 6.12%
CCCc1cnc2c(c1SCC(=O)Nc1ccccc1F)c(=O)n(C)c(=O)n2C	inactive: -2.8%
CCCCCc1nn2cc(-c3ccccc3)nc2s1	inactive: 11%
Cn1nnnc1SCCCNCc1cc(Cl)ccc1OCc1ccccc1F	inactive: -28.9%
Cc1cccc(N2CCN(S(=O)(=O)c3c(C(=O)N4CCC(C)CC4)c(C)n(C)c3C)CC2)c1C	inactive: -19.9%
Cc1ccc(NC(=O)Cn2cnc3sc(C)c(S(=O)(=O)N4CCN(c5ncccn5)CC4)c3c2=O)cc1F	inactive: 11.1%
COC(=O)c1ccc(NC(=O)CC2C(=O)N(c3ccccc3)C(=O)N2Cc2ccco2)cc1 (centres undefined)	inactive: 1.7%
COc1cc(Nc2ncc3c(n2)CCN(Cc2cc(F)cc(F)c2)C3)cc(OC)c1	inactive: -11%
CCc1nn(Cc2c(C)cc(C)cc2C)c(=O)c2cc3cc(C)ccc3n12	inactive: 3.49%
O=C(Nc1ccc(F)cc1F)N1CCN(c2ccc(Cl)c(Cl)c2)CC1	inactive: -0.791%
CCCC12CN3CC(CCC)(CN(C1)C3c1c(C)[nH]c(=O)[nH]c1=O)C2=O (centres undefined)	inactive: 14.5%
Cc1ccc(C2C=C(c3ccc(Cl)cc3)Nc3nc(NC(=O)c4ccco4)nn32)cc1 (centres undefined)	inactive: -10.3%
Cc1cc(C)cc(N2C(=O)CCSC23C(=O)N(Cc2ccccc2)c2ccccc23)c1 (centres undefined)	inactive: 2.89%
